Measurements from a collection of fitness landscapes (doi:10.1126/science.1257360).
The list shows a part of the results.

B1: PhoQ; a variant is named by its letters at X, in order, P23837 (parent)
chain: MKKLLRLFFPLSLRVRFLLATAAVVLVLSLAYGMVALIGYSVSFDKTTFRLLRGESNLFYTLAKWENNKLHVELPENIDKQSPTMTLIYDENGQLLWAQRDVPWLMKMIQPDWLKSNGFHEIEADVNDTSLLLSGDHSIQQQLQEVREDDDDAEMTHSVAVNVYPATSRMPKLTIVVVDTIPVELKSSYMVWSWFIYVLSANLLLVIPLLWVAAWWSLRPIEALAKEVRELEEHNRELLNPATTRELTSLVRNLNRLLKSERERYDKYRTTLTDLTHSLKTPLXXLQXXLRSLRSEKMSVSDAEPVMLEQISRISQQIGYYLHRASMRGGTLLSRELHPVAPLLDNLTSALNKVYQRKGVNISLDISPEISFVGEQNDFVEVMGNVLDNACKYCLEFVEISARQTDEHLYIVVEDDGPGIPLSKREVIFDRGQRVDTLRPGQGVGLAVAREITEQYEGKIVAGESMLGGARMEVIFGRQHSAPKDE

Variants of: B1
Assay: enrichment ratio after two sorts for PhoP signalling (ratio (wild type AVST 3.29)); higher = more functional
Conditions: with PhoP (E. coli)

Row | Variant | enrichment ratio
1 | WVIP | ≤ 0.25
2 | SHGP | ≤ 0.25
3 | DPSC | ≤ 0.25
4 | FDCL | ≤ 0.25
5 | SWPM | ≤ 0.25
6 | KYNS | ≤ 0.25
7 | DTFW | ≤ 0.25
8 | NTSE | ≤ 0.25
9 | PIAC | ≤ 0.25
10 | VENR | ≤ 0.25
11 | LGFE | ≤ 0.25
12 | GFVV | ≤ 0.25
13 | TTRS | ≤ 0.25
14 | IQPS | ≤ 0.25
15 | HGHC | ≤ 0.25
16 | TEMG | 19.1
17 | HEWM | ≤ 0.25
18 | SATL | 6.87
19 | TIEI | 2.86
20 | KSGP | ≤ 0.25
21 | DADH | ≤ 0.25
22 | YKSD | ≤ 0.25
23 | ELMM | ≤ 0.25
24 | YAIN | ≤ 0.25
25 | SYTI | 0.274

Row | Variant | enrichment ratio
26 | MFMY | ≤ 0.25
27 | GQTL | ≤ 0.25
28 | EYGY | ≤ 0.25
29 | PNPS | ≤ 0.25
30 | PCQK | ≤ 0.25
31 | FVKH | ≤ 0.25
32 | HDVG | ≤ 0.25
33 | TYWC | ≤ 0.25
34 | GVDK | ≤ 0.25
35 | YLDD | ≤ 0.25
36 | SLSE | 1.48
37 | PHKC | ≤ 0.25
38 | PFTN | ≤ 0.25
39 | IPRD | ≤ 0.25
40 | PQQV | ≤ 0.25
41 | DFRQ | ≤ 0.25
42 | AICV | 15.3
43 | RSHI | 0.251
44 | PEHL | ≤ 0.25
45 | PCGI | ≤ 0.25
46 | VPIP | ≤ 0.25
47 | CILF | ≤ 0.25
48 | LCAH | ≤ 0.25
49 | IQLC | ≤ 0.25
50 | EIWS | ≤ 0.25

Row | Variant | enrichment ratio
51 | KGKG | ≤ 0.25
52 | SFNQ | ≤ 0.25
53 | ARVS | ≤ 0.25
54 | IVYT | ≤ 0.25
55 | PSCD | ≤ 0.25
56 | PTEG | ≤ 0.25
57 | HHAG | ≤ 0.25
58 | RFHC | ≤ 0.25
59 | RSQV | ≤ 0.25
60 | WVSH | ≤ 0.25
61 | LEKF | ≤ 0.25
62 | VLQK | ≤ 0.25
63 | TLSA | 7.98
64 | FDNL | ≤ 0.25
65 | TATH | 3.27
66 | QVPA | ≤ 0.25
67 | LRIQ | ≤ 0.25
68 | DWFI | ≤ 0.25
69 | QTMG | ≤ 0.25
70 | DWNE | ≤ 0.25
71 | LQAH | ≤ 0.25
72 | AGAN | 3.14
73 | KIMW | ≤ 0.25
74 | MNFA | ≤ 0.25
75 | IWEW | ≤ 0.25

Row | Variant | enrichment ratio
76 | YRPC | ≤ 0.25
77 | SNEG | ≤ 0.25
78 | PYGM | ≤ 0.25
79 | YEWD | ≤ 0.25
80 | DRHV | ≤ 0.25
81 | FKTW | ≤ 0.25
82 | ESGV | ≤ 0.25
83 | RRQM | ≤ 0.25
84 | TDQA | ≤ 0.25
85 | NEYV | ≤ 0.25
86 | HKTD | ≤ 0.25
87 | EAVV | ≤ 0.25
88 | PIAQ | ≤ 0.25
89 | HRYF | ≤ 0.25
90 | PHMR | ≤ 0.25
91 | RCTQ | ≤ 0.25
92 | AKPG | ≤ 0.25
93 | WSLE | ≤ 0.25
94 | DWST | ≤ 0.25
95 | HSYL | 0.277
96 | FTQM | ≤ 0.25
97 | TPMC | ≤ 0.25
98 | RTGN | ≤ 0.25
99 | ALLN | 6.8
100 | QMVL | ≤ 0.25

Row | Variant | enrichment ratio
101 | FQQC | ≤ 0.25
102 | LYWN | ≤ 0.25
103 | VILM | 1.31
104 | IGPT | ≤ 0.25
105 | QNII | ≤ 0.25
106 | EIGN | ≤ 0.25
107 | SCHV | ≤ 0.25
108 | FKVK | ≤ 0.25
109 | IESP | ≤ 0.25
110 | CYYL | ≤ 0.25
111 | FQRN | ≤ 0.25
112 | RDQF | ≤ 0.25
113 | MCMF | 4.63
114 | IQAN | ≤ 0.25
115 | LFNQ | ≤ 0.25
116 | WKCT | ≤ 0.25
117 | FSLN | 9.67
118 | DCCY | ≤ 0.25
119 | RHIQ | ≤ 0.25
120 | KMSS | ≤ 0.25
121 | TQFC | 8.5
122 | PEYD | ≤ 0.25
123 | HFFA | ≤ 0.25
124 | QWFP | ≤ 0.25
125 | ADDC | ≤ 0.25

Row | Variant | enrichment ratio
126 | LQML | ≤ 0.25
127 | YPFF | ≤ 0.25
128 | VGQG | ≤ 0.25
129 | EPNS | ≤ 0.25
130 | GLMK | ≤ 0.25
131 | IQYP | ≤ 0.25
132 | YNVL | ≤ 0.25
133 | IIRT | ≤ 0.25
134 | PFWV | ≤ 0.25
135 | FVLC | 1.1
136 | STVR | ≤ 0.25
137 | DGKT | ≤ 0.25
138 | YIAH | 0.333
139 | AMFY | ≤ 0.25
140 | TPQR | ≤ 0.25
141 | TAWG | 6
142 | RQNW | ≤ 0.25
143 | QFMV | ≤ 0.25
144 | ANCT | 21
145 | PPSW | ≤ 0.25
146 | ERSK | ≤ 0.25
147 | DKRI | ≤ 0.25
148 | EVSV | ≤ 0.25
149 | YDNH | ≤ 0.25
150 | GCKG | ≤ 0.25

Row | Variant | enrichment ratio
151 | QFNK | ≤ 0.25
152 | DMLF | ≤ 0.25
153 | AITA | 3.12
154 | RPLH | ≤ 0.25
155 | PFKN | ≤ 0.25
156 | NLKI | ≤ 0.25
157 | RYSD | ≤ 0.25
158 | SYDY | ≤ 0.25
159 | SQPD | ≤ 0.25
160 | TQAK | ≤ 0.25
161 | DQWS | ≤ 0.25
162 | QQAW | ≤ 0.25
163 | WNNM | ≤ 0.25
164 | VMAV | ≤ 0.25
165 | AFKH | ≤ 0.25
166 | TMMM | 6.28
167 | FDNR | ≤ 0.25
168 | GDPF | ≤ 0.25
169 | SLIP | ≤ 0.25
170 | VLYN | ≤ 0.25
171 | QKSC | ≤ 0.25
172 | NWHY | ≤ 0.25
173 | GCMM | ≤ 0.25
174 | YFVQ | ≤ 0.25
175 | ELHF | ≤ 0.25

Row | Variant | enrichment ratio
176 | HTPL | ≤ 0.25
177 | NNYP | 0.69
178 | NDAV | ≤ 0.25
179 | MPNL | ≤ 0.25
180 | HLDP | ≤ 0.25
181 | IVVF | ≤ 0.25
182 | LMNI | ≤ 0.25
183 | LGPM | ≤ 0.25
184 | NHTS | ≤ 0.25
185 | YSQY | ≤ 0.25
186 | HKKT | ≤ 0.25
187 | HLMY | ≤ 0.25
188 | ISKM | ≤ 0.25
189 | IHLP | ≤ 0.25
190 | PQCF | ≤ 0.25
191 | SACM | 9.07
192 | VWTR | ≤ 0.25
193 | MCAH | 2.04
194 | TDPP | ≤ 0.25
195 | DKWR | ≤ 0.25
